The values below come from publication PMC5700166.

Common to all, as to assay: protein-binding microarray (PBM)
Common to all, as to settings: PBM: ~300 nM protein, 6 mM HEPES pH 7.8, 80 mM KCl, 0.5 mM EDTA, 0.5 mM EGTA, 6% glycerol, 35 ng/ul poly-dIdC, 1% milk, 1 h, room temperature; Ap Aiptasia and Nv Nematostella (sea anemones) / Co Capsaspora / Aq Amphimedon (sponge) / Dm Drosophila / Hu human; RHD is the Rel homology domain; high values mean tight binding; most listed sequences are background and not binding sites; double strand, one strand shown

One assay deals with T1, GST-Ap-NF-kB RHD (UniProt A0A913YAJ5).
T1 sequence: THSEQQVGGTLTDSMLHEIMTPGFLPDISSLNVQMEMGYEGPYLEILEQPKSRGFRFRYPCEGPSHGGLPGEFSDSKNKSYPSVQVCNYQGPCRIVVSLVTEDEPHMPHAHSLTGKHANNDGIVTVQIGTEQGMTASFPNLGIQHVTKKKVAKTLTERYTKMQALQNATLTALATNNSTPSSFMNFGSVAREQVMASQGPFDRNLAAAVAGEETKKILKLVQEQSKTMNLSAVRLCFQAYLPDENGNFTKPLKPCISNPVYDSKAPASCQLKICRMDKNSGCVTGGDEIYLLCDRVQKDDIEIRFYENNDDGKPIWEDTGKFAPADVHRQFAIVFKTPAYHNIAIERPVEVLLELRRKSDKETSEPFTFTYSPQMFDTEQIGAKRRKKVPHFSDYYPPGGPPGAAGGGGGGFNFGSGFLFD

For assay [1], the target named is T2, GST-Nv-NF-kB (Cys allele) (UniProt E5G601).
T2 sequence: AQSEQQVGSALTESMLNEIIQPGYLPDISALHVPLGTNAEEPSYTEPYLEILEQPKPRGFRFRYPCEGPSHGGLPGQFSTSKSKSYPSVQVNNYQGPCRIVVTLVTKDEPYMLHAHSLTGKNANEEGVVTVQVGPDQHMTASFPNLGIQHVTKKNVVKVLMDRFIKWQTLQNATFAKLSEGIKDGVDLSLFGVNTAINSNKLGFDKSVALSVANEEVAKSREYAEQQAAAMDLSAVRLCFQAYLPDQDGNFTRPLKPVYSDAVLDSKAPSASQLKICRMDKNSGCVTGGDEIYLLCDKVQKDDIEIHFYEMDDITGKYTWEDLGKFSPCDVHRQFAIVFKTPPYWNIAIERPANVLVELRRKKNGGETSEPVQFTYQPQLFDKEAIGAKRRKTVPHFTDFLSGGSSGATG

The next assay has as its target T3, GST-Co-NF-kB (UniProt F1ARL5).
T3 sequence: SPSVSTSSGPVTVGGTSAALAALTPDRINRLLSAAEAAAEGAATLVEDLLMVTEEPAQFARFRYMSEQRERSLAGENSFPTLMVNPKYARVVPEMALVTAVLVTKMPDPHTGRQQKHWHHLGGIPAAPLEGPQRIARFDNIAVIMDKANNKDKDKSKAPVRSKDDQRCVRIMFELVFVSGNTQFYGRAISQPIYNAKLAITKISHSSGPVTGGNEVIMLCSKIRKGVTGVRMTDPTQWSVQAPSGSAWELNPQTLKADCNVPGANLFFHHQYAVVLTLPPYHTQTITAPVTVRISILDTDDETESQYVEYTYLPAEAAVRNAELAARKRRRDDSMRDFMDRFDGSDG

A further assay concerns the target T4, GST-Dm-Relish (UniProt Q94527).
T4 sequence: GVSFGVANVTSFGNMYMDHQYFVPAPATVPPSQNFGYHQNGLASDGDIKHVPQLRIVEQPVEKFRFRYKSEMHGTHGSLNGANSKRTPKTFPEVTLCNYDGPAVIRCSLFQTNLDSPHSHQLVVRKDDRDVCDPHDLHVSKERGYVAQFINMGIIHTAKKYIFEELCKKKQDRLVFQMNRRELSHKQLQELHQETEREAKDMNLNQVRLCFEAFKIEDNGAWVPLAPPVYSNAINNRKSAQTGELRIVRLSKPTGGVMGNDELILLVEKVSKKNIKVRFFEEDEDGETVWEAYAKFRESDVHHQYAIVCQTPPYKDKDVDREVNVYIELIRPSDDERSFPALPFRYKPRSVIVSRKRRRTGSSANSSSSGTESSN

Another assay addresses T5, GST-Aq-NF-kB (UniProt A9Y5G7).
T5 sequence: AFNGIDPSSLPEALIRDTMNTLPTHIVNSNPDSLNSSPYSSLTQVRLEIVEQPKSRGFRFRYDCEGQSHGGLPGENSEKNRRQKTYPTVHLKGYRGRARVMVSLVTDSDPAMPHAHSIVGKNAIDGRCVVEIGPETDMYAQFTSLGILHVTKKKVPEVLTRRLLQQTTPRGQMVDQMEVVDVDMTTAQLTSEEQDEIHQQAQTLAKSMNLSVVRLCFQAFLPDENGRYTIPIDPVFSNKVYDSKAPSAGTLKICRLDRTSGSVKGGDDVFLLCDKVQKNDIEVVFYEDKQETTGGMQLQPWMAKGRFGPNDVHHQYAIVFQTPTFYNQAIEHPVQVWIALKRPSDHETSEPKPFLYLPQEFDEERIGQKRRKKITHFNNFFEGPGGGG

Only a part is listed here, and it is no random draw. The list includes weakly bound sequences.

For the sequence “CCGATTAACATCACCATGATAGCTGATGTTAATCGGGTCTTGATTCGCTTGACGCTGCTG”, the binding signal with GST-Ap-NF-kB RHD was -0.14 z-score; in assay [1], -0.536 z-score; with GST-Co-NF-kB, 0.384 z-score; in the assay with GST-Dm-Relish, -0.335 z-score; with GST-Aq-NF-kB, -0.268 z-score.

“CCGATTAACATCATTTGACTTGCTGATGTTAATCGGGTCTTGATTCGCTTGACGCTGCTG”: the binding signal was -0.257 z-score in the assay with GST-Ap-NF-kB RHD; -0.223 z-score in assay [1]; -0.151 z-score with GST-Co-NF-kB; -0.682 z-score with GST-Dm-Relish; -0.426 z-score with GST-Aq-NF-kB.

Consider “CCGATTAACATCACTAATGGATCTGATGTTAATCGGGTCTTGATTCGCTTGACGCTGCTG”, for which the binding signal in the assay with GST-Ap-NF-kB RHD is -0.827 z-score; in assay [1], -0.379 z-score; in the assay with GST-Co-NF-kB, -0.0448 z-score; with GST-Dm-Relish, -0.394 z-score; with GST-Aq-NF-kB, -0.599 z-score.

With “CCGATTAACATCACTCCTGGGTGTGATGTTAATCGGGTCTTGATTCGCTTGACGCTGCTG”, the binding signal with GST-Ap-NF-kB RHD is -0.141 z-score; in assay [1], 0.318 z-score; with GST-Co-NF-kB, 0.659 z-score; in the assay with GST-Dm-Relish, 0.251 z-score; with GST-Aq-NF-kB, -0.209 z-score.

For the sequence “CCGATTAACATCATGCATGGTCATGATGTTAATCGGGTCTTGATTCGCTTGACGCTGCTG”, the binding signal with GST-Ap-NF-kB RHD is -0.962 z-score; in assay [1], -0.253 z-score; in the assay with GST-Co-NF-kB it was -0.402 z-score; with GST-Dm-Relish it was -0.313 z-score; in the assay with GST-Aq-NF-kB it was -0.514 z-score.

With “CCGATTAACATCATCCATAGTGCTGATGTTAATCGGGTCTTGATTCGCTTGACGCTGCTG”, the binding signal with GST-Ap-NF-kB RHD is -0.242 z-score; in assay [1], -0.555 z-score; in the assay with GST-Co-NF-kB, -0.424 z-score; with GST-Dm-Relish it was -0.386 z-score; with GST-Aq-NF-kB, -0.433 z-score.

Turning to “CCGATTAACATCAGTTCGGGCCGTGATGTTAATCGGGTCTTGATTCGCTTGACGCTGCTG”, the binding signal is -0.0835 z-score with GST-Ap-NF-kB RHD; -0.966 z-score in assay [1]; -1.09 z-score with GST-Co-NF-kB; -0.7 z-score in the assay with GST-Dm-Relish; -0.306 z-score in the assay with GST-Aq-NF-kB.

Turning to “CCGATTAACATCATACACGATGATGATGTTAATCGGGTCTTGATTCGCTTGACGCTGCTG”, the binding signal was -0.623 z-score in the assay with GST-Ap-NF-kB RHD; 0.597 z-score in assay [1]; 0.155 z-score in the assay with GST-Co-NF-kB; -0.358 z-score with GST-Dm-Relish; -0.325 z-score with GST-Aq-NF-kB.

Regarding “CCGATTAACATCATTGCATCGAGTGATGTTAATCGGGTCTTGATTCGCTTGACGCTGCTG”, the binding signal with GST-Ap-NF-kB RHD was -0.339 z-score; in assay [1], -0.631 z-score; with GST-Co-NF-kB, -0.537 z-score; in the assay with GST-Dm-Relish, 0.244 z-score; in the assay with GST-Aq-NF-kB it was -0.406 z-score.

Consider “CCGATTAACATCATCTACAACAGTGATGTTAATCGGGTCTTGATTCGCTTGACGCTGCTG”, for which the binding signal in the assay with GST-Ap-NF-kB RHD is 0.0253 z-score; in assay [1] it was 0.404 z-score; in the assay with GST-Co-NF-kB, 0.261 z-score; in the assay with GST-Dm-Relish, 0.298 z-score; with GST-Aq-NF-kB, -0.21 z-score.

For the sequence “CCGATTAACATCAGTTGTCTACGTGATGTTAATCGGGTCTTGATTCGCTTGACGCTGCTG”, the binding signal with GST-Ap-NF-kB RHD was -0.818 z-score; in assay [1] it was -0.323 z-score; in the assay with GST-Co-NF-kB it was -0.608 z-score; with GST-Dm-Relish it was -0.34 z-score; in the assay with GST-Aq-NF-kB it was -0.431 z-score.

With “CCGATTAACATCAAAAGACGGACTGATGTTAATCGGGTCTTGATTCGCTTGACGCTGCTG”, the binding signal with GST-Ap-NF-kB RHD is 0.432 z-score; in assay [1], -0.536 z-score; with GST-Co-NF-kB it was -0.0369 z-score; in the assay with GST-Dm-Relish, -0.471 z-score; in the assay with GST-Aq-NF-kB, -0.135 z-score.

For the sequence “CCGATTAACATCAGACATCGACATGATGTTAATCGGGTCTTGATTCGCTTGACGCTGCTG”, the binding signal is 0.218 z-score with GST-Ap-NF-kB RHD; -0.627 z-score in assay [1]; -0.683 z-score with GST-Co-NF-kB; -0.922 z-score with GST-Dm-Relish; -0.376 z-score with GST-Aq-NF-kB.

As for “CCGATTAACATCATGTAACTTGATGATGTTAATCGGGTCTTGATTCGCTTGACGCTGCTG”, the binding signal was -0.224 z-score with GST-Ap-NF-kB RHD; -0.138 z-score in assay [1]; -1.1 z-score with GST-Co-NF-kB; 0.0703 z-score with GST-Dm-Relish; -0.38 z-score with GST-Aq-NF-kB.
